Laboratory results from PMC4336329 (PLoS ONE, 2015).
Out of some 310,000 compounds screened, about 14,000 (4.5%) showed an effect of 50% or more. Effects have a minus sign here. This is one part of the list.

molecular target: human ether-à-go-go-related gene (hERG) potassium channel (human, UniProt Q12809); assay: primary screen, population patch clamp on CHO cells stably expressing hERG
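Note: peak tail current of the secondary pulse compared with the same well before compound.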

Sequence of human ether-à-go-go-related gene (hERG) potassium channel (Q12809 whole entry, looked up): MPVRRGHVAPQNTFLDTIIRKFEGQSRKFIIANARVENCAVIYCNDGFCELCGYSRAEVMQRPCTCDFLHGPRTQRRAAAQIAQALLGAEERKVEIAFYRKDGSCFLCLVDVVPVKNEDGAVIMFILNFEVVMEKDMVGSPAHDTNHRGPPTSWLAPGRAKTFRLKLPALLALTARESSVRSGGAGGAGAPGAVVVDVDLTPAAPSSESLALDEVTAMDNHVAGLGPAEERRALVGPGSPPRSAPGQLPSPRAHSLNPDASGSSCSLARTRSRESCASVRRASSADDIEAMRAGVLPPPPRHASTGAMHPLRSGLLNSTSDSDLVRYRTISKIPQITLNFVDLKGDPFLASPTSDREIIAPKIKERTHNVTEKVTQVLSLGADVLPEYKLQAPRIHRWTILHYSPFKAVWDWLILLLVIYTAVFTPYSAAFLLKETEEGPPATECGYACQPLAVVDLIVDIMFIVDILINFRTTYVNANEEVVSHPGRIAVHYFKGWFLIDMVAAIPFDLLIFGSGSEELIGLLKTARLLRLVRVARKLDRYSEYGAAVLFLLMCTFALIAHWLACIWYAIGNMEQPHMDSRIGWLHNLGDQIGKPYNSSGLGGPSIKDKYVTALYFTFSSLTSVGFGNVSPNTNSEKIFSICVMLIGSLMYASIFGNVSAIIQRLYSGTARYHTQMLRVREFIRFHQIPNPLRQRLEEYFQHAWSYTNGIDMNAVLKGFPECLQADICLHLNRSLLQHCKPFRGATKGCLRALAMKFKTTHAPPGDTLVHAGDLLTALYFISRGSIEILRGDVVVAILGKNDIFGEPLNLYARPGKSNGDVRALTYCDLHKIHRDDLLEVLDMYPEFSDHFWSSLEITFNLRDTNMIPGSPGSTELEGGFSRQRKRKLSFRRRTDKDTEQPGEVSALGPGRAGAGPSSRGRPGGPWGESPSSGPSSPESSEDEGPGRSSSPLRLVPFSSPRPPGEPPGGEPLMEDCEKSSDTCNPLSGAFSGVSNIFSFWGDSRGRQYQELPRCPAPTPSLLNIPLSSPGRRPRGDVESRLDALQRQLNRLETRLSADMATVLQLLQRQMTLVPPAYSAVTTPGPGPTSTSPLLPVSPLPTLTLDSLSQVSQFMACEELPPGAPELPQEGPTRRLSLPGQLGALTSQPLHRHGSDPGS

| Structure (SMILES) | hERG current change (%, negative = inhibition) at 10uM [%] |
| --- | --- |
| O=C(COC(=O)Cc1c(F)cccc1Cl)NC1CCS(=O)(=O)C1 (stereo not shown) | 20.7 |
| CCc1cc2c(=O)n(C(C)C(=O)OC3CCCCC3)cnc2s1 (stereo not shown) | -23.4 |
| COc1ccc(OC)c(NC(=O)Cc2coc3ccc4ccccc4c23)c1 | 0.772 |
| O=C(O)c1n[nH]c2c1CC(C1CCCCC1)CC2 (stereo not shown) | 13 |
| O=C(Nc1cc(Cl)cc(Cl)c1)C(NCCCO)c1ccccc1 (stereo not shown) | 3.1 |
| CN(CC(=O)NCc1ccco1)S(=O)(=O)c1ccc(F)cc1 | 14.4 |
| COCCOC(=O)c1c(C)n(C)c2ccc(OC(=O)c3c(OC)cccc3OC)cc12 | 24 |
| COc1ccc(C(=O)NC2CC3CCCC(C2)N3Cc2ccccc2)cc1OC (stereo not shown) | -23.6 |
| CC(=O)/C(C#N)=C1\NC(=O)C(Cc2ccc(C)c(Cl)c2)S1 (stereo not shown) | 18.5 |
| CCC(=O)c1ccc(OCC(=O)OCC(=O)N2c3ccccc3NC(=O)C2(C)C)cc1 | 2.82 |
| Cc1ccc(N2C(=O)c3ccc(C(=O)N4CCN(c5ccc(C)c(C)c5)CC4)cc3C2=O)cc1 | 8.32 |
| CCC(=O)NNc1nc2c(C)cccc2s1 | 26 |
| Cc1ccc(C)c(NC(=O)C2CCCN2/C=C/C(=O)C(F)(F)F)c1 (stereo not shown) | 3.29 |
| O=C(O)c1cccc(Sc2ccc(Br)cc2C(=O)O)c1 | 27.7 |
| COc1cccc(C2=NOC(C(=O)N3CCN(Cc4ccccc4)CC3)C2)c1OC (stereo not shown) | -27.3 |
| CCC(=O)Nc1ccc(Cl)c(NC(=S)NC(C)=O)c1 | 11.7 |
| CCOC(=O)C1CCN(C(=O)Cc2ccc(C)cc2)CC1 | -1.62 |
| O=C(O)c1ccc2c(c1)C(=O)N(CCC1=CCCCC1)C2=O | 26.8 |
| C=CCn1c(O)c2ccc(C(=O)N=NC(=O)COc3ccc(OC)cc3)cc2c1O | -12 |
| Cc1cc(=O)oc2c(C)c(OC(C)C(=O)Nc3ccc(N4CCC(C)CC4)cc3)ccc12 (stereo not shown) | 23.3 |

| Structure (SMILES) | hERG current change (%, negative = inhibition) at 10uM [%] |
| --- | --- |
| O=C(CCCn1ncn2c(cc3occc32)c1=O)NCc1ccccc1F | -12.4 |
| O=C(NCC1CCCCC1)c1ccc(F)cc1Cl | -5.71 |
| COC(=O)N1C(=O)[C@](CC(C)C)(c2ccccc2)N1C(=O)OC | 12.5 |
| O=C(NCC1CCCO1)c1c(O)c2c([nH]c1=O)CCCC2 (stereo not shown) | 5.78 |
| O=C(NC(=S)Nc1cccc2c(O)cccc12)c1ccco1 | -0.623 |
| Cc1ccc(NC(=O)N(Cc2ccco2)C(C)c2ccco2)cc1C (stereo not shown) | -17 |
| Cc1onc(-c2c(F)cccc2Cl)c1C(=O)NCc1ccc(S(N)(=O)=O)cc1 | -10 |
| CC(C)(CN=C1NS(=O)(=O)c2ccccc21)CNC(=O)c1ccccc1 | -16.4 |
| CC(NC(=O)c1ccc([N+](=O)[O-])o1)C12CC3CC(CC(C3)C1)C2 (stereo not shown) | -30.2 |
| CC(C)(C)CC(=O)NCCCCCCNC(=O)CC(C)(C)C | 3.04 |
| COc1ccccc1N(C(=O)c1snc(C(N)=O)c1N)C(C(=O)NC1CCCCC1)c1cccc(OC)c1OC (stereo not shown) | -15.7 |
| O=C(O)c1oc2ccccc2c1CN1CCN(c2ccccc2)CC1 | -3.37 |
| O=S(=O)(NCCc1ccc(Cl)cc1)c1cccc2cccnc12 | -48.5 |
| Cc1ccccc1OCc1nc(C#N)c(N2CCCC2)o1 | -36.3 |
| O=C(CC1C(=O)NCCN1Cc1ccccc1C(F)(F)F)NCCn1cccn1 (stereo not shown) | 25.7 |
| C/C(=N\NC(=O)CCCNc1cccc(C)c1)c1ccncc1 | 0.987 |
| O=C(CN1CCOCC1)Nc1nc2ccc(Cl)cc2s1 | -33.8 |
| CCCCOc1ccc(N=Cc2cccs2)cc1 | -7.49 |
| O=C(CSc1nnc(-c2ccccn2)o1)Nc1ccc(F)cc1 | -22.6 |
| CC1CN(CCC(=O)Nc2ccc3c(c2)CCC3)CC(C)O1 (stereo not shown) | 7.82 |

| Structure (SMILES) | hERG current change (%, negative = inhibition) at 10uM [%] |
| --- | --- |
| O=C(CCNC(=O)c1ccc([N+](=O)[O-])cc1)NCCc1ccccc1 | -27.8 |
| CC1CC(C)CN(c2oc(-c3ccccc3F)nc2C#N)C1 (stereo not shown) | 5.9 |
| CCCC1=C(C(=O)OCC)C2(C(=O)Nc3ccccc32)C(C#N)=C(N)O1 (stereo not shown) | 8.72 |
| CN1CCN(c2ccccc2NC(=O)Cc2ccc(Cl)cc2)CC1 | -73.4 |
| Cc1cc2cc(C)c(NCCNC(=O)c3ccccc3)nc2cc1C | 6.9 |
| NC(=O)N/N=C/c1sc(=O)n(-c2ccccc2)c1Cl | 13.8 |
| O=C(Cc1cccs1)Nc1ccc(F)c(S(=O)(=O)N2CCOCC2)c1 | -36.6 |
| Cc1ccc(NCC(=O)N/N=C\C(Br)=C\c2ccccc2)cc1 | -8.87 |
| Cc1cc(F)ccc1NC(=O)C1CSC2(C)CCC(=O)N12 (stereo not shown) | -3.86 |
| COc1n[nH]c(C(=O)Nc2cc(F)ccc2C)c1[N+](=O)[O-] | 18.3 |
| COC(=O)c1ccc(CSc2ccc3nnc(-c4cccc(F)c4)n3n2)o1 | -62 |
| CC(=O)c1ccc(Oc2ccc(C(=O)c3ccc(C)c(C)c3)cc2[N+](=O)[O-])cc1 | 11.1 |
| CCCC1C2CN(C(C)=O)CC=C2C(C#N)=C(N)C1(C#N)C#N (stereo not shown) | -4.14 |
| COc1ccccc1C(=O)Nc1nnc(-c2ccccc2)s1 | 11.9 |
| O=C(c1cnn2c(C(F)(F)F)cc(-c3ccco3)nc12)N1CCCc2ccccc21 | -6.54 |
| Cc1cc(N2CCOCC2)nc(-c2ccccc2O)n1 | 7.69 |
| CC(C)n1nccc1N(Cc1ccc(C#N)cc1)S(=O)(=O)c1ccccc1 | -13.7 |
| C#CCSc1nc2ccccc2n1C(=O)c1ccc(S(=O)(=O)N2CCCCC2)cc1 | -4.22 |
